{
  "source": "paper PMC4336329",
  "about": "(PLoS ONE, 2015)",
  "note": "About 14,000 (4.5%) of roughly 310,000 compounds showed an effect of 50% or more. The effect is printed as a negative number. Some of the results follow.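 Note: peak tail current of the secondary pulse compared with the same well before compound.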",
  "data": [
    {"molecular_target": "human ether-à-go-go-related gene (hERG) potassium channel (human, UniProt Q12809)", "sequence (Q12809 whole entry, looked up)": "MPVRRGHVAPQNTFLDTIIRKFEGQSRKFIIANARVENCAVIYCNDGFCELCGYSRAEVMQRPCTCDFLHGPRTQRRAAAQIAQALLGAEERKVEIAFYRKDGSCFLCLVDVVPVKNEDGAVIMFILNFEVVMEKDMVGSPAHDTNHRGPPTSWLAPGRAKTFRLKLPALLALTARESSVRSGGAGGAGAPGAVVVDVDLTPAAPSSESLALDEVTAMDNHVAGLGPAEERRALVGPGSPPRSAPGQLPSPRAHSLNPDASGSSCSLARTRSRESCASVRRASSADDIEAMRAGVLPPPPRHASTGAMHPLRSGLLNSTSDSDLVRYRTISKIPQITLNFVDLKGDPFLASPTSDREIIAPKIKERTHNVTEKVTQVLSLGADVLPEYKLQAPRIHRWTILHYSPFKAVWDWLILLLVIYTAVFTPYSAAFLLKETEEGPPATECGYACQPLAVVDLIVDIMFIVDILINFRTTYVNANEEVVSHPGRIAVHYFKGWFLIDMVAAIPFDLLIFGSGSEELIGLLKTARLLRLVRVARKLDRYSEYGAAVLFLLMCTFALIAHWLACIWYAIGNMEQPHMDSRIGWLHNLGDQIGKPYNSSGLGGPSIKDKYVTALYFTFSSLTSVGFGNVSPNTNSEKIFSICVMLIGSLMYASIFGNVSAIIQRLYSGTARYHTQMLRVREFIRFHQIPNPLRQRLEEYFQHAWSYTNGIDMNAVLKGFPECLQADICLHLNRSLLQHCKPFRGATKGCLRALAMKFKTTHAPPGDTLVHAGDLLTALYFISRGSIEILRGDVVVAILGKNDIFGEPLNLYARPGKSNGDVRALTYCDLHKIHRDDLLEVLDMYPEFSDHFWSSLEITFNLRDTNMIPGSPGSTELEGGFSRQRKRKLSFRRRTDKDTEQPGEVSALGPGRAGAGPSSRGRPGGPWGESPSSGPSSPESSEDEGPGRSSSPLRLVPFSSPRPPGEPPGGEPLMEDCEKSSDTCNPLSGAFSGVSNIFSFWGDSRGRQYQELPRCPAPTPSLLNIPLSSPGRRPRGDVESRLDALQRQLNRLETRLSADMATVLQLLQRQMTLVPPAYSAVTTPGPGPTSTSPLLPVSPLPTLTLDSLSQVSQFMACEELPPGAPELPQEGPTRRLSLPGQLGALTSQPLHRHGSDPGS", "assay": "primary screen, population patch clamp on CHO cells stably expressing hERG", "units": {"hERG current change (%, negative = inhibition) at 10uM": "%"}, "values": [
      {"smiles": "c1cc(C2CCN(Cc3nc(-c4ccc5c(c4)OCO5)no3)CC2)ccn1", "hERG current change (%, negative = inhibition) at 10uM": -19.7},
      {"smiles": "CN1C(=O)/C(=N\\OC(=O)c2cccc3ccccc23)c2ccccc21", "hERG current change (%, negative = inhibition) at 10uM": 4.54},
      {"smiles": "COc1ccc2c(C)cc(=O)oc2c1C", "hERG current change (%, negative = inhibition) at 10uM": 6.64},
      {"smiles": "Brc1ccc2c(c1)CNc1c(ncnc1N1CCOCC1)O2", "hERG current change (%, negative = inhibition) at 10uM": -15.5},
      {"smiles": "Cc1nnc(SCCc2ccccc2)[nH]c1=O", "hERG current change (%, negative = inhibition) at 10uM": -7.64},
      {"smiles": "COc1cccc(N(CC(=O)N2CCCC2)S(C)(=O)=O)c1", "hERG current change (%, negative = inhibition) at 10uM": 19.6},
      {"smiles": "N#CCc1nc2ccc(S(=O)(=O)N3CCOCC3)cc2s1", "hERG current change (%, negative = inhibition) at 10uM": -9.71},
      {"smiles": "Cc1ccc(C)c(NC(=S)NNC(=O)c2csc(C)c2)c1", "hERG current change (%, negative = inhibition) at 10uM": 23.6},
      {"smiles": "O=C(Oc1ccccc1)Oc1ccc2c(c1)oc(=O)c1ccccc12", "hERG current change (%, negative = inhibition) at 10uM": 16.9},
      {"smiles": "CC(=O)c1cccc(NC(=O)COC(=O)[C@@H](NC(=O)OCc2ccccc2)C(C)C)c1", "hERG current change (%, negative = inhibition) at 10uM": -40.2},
      {"smiles": "CC1CCCN(C(=O)CSc2ncccn2)C1", "note": "(centres unmarked)", "hERG current change (%, negative = inhibition) at 10uM": 14.8},
      {"smiles": "COC(=O)c1sccc1NC(=O)CNC(=O)c1ccccc1", "hERG current change (%, negative = inhibition) at 10uM": -9.02},
      {"smiles": "O=C(O)c1cccc(NCc2cccnc2)c1", "hERG current change (%, negative = inhibition) at 10uM": 9.7},
      {"smiles": "CCOc1ccccc1CN1CCCC(CNS(=O)(=O)c2ccc(OC)cc2)C1", "note": "(centres unmarked)", "hERG current change (%, negative = inhibition) at 10uM": -63.7},
      {"smiles": "O=C(NC1CCCC1)C1CCN(S(=O)(=O)c2ccccc2)CC1", "hERG current change (%, negative = inhibition) at 10uM": 4.07},
      {"smiles": "CCOC(=O)C1CCCN(Cc2nc(N)nc(Nc3ccccc3)n2)C1", "note": "(centres unmarked)", "hERG current change (%, negative = inhibition) at 10uM": -71.2},
      {"smiles": "CCOc1ccc(NC(=O)CSc2nnc(-c3cc(C)[nH]n3)n2N)cc1", "hERG current change (%, negative = inhibition) at 10uM": 25.3},
      {"smiles": "Cc1cccc(N(C(=O)CS(=O)CC(=O)Nc2ccc3c(c2)OCO3)C(C)C(=O)NC2CCCC2)c1C", "note": "(centres unmarked)", "hERG current change (%, negative = inhibition) at 10uM": -11.6},
      {"smiles": "O=C(O)c1ccc2c3c(cccc13)C(=O)N(c1ccccc1)C2=O", "hERG current change (%, negative = inhibition) at 10uM": 6.65},
      {"smiles": "O=C(Nc1cccc(-c2csc(Nc3ccc(Cl)cc3)n2)c1)c1cccc(C(F)(F)F)c1", "hERG current change (%, negative = inhibition) at 10uM": 15.1},
      {"smiles": "CC(NC(=O)CCNS(=O)(=O)c1cccc2nsnc12)c1ccccc1", "note": "(centres unmarked)", "hERG current change (%, negative = inhibition) at 10uM": -8.74},
      {"smiles": "O=C(COC(=O)C1CCCN1C(=O)c1cccs1)c1ccccc1", "note": "(centres unmarked)", "hERG current change (%, negative = inhibition) at 10uM": -11.6},
      {"smiles": "O=C(CSc1nc2ccccc2s1)N/N=C/c1ccc(C(=O)O)cc1", "hERG current change (%, negative = inhibition) at 10uM": 14.6},
      {"smiles": "O=C(O)CN1C(=O)/C(=C/c2ccc(N3CCCCC3)o2)SC1=S", "hERG current change (%, negative = inhibition) at 10uM": 21.4},
      {"smiles": "Cc1ccc(S(=O)(=O)NC2CCCCC2)cc1C(=O)N1CCC(C(N)=O)CC1", "hERG current change (%, negative = inhibition) at 10uM": 8.46},
      {"smiles": "O=C1NC(=Nc2ccc(O)cc2)S/C1=C/c1ccco1", "hERG current change (%, negative = inhibition) at 10uM": 16.7},
      {"smiles": "O=C(c1ccco1)N1CCN(S(=O)(=O)Cc2ccc(Cl)cc2)CC1", "hERG current change (%, negative = inhibition) at 10uM": -36},
      {"smiles": "CCOc1cc2c(cc1OCC)C(c1ccc(C(=O)O)cc1)NCC2.Cl", "note": "(centres unmarked)", "hERG current change (%, negative = inhibition) at 10uM": 6.83},
      {"smiles": "COCCCn1c(-c2ccc(OC)cc2)nc2c1c(=O)[nH]c(=O)n2Cc1ccccc1", "hERG current change (%, negative = inhibition) at 10uM": -8.91},
      {"smiles": "CCn1c(COc2ccc(C)cc2)nnc1SCc1nc2ccccc2[nH]1", "hERG current change (%, negative = inhibition) at 10uM": -23.1},
      {"smiles": "COc1ccc(N(C(=O)COc2ccccc2)C2C=CS(=O)(=O)C2)c(OC)c1", "note": "(centres unmarked)", "hERG current change (%, negative = inhibition) at 10uM": -25.5},
      {"smiles": "CCOC(=O)CSc1nnc(CNc2cccc(Cl)c2)n1-c1ccccc1", "hERG current change (%, negative = inhibition) at 10uM": -25.3},
      {"smiles": "CCN(c1ccccc1)S(=O)(=O)c1ccc(Cl)c(NC(=O)COC(=O)c2ccc(Cl)c(N)c2)c1", "hERG current change (%, negative = inhibition) at 10uM": 7.36},
      {"smiles": "COc1cccc(/C=C2\\C(=O)N(c3cccc(C)c3)C(=O)c3ccccc32)c1", "hERG current change (%, negative = inhibition) at 10uM": 4.6},
      {"smiles": "COCCOC(=O)C1=C(C)NC(=O)CC1c1cc2c(cc1Br)OCO2", "note": "(centres unmarked)", "hERG current change (%, negative = inhibition) at 10uM": -11.7},
      {"smiles": "CCCCN(CCCC)c1cc(C)nc(-c2ccccc2O)n1", "hERG current change (%, negative = inhibition) at 10uM": 16.8},
      {"smiles": "CNCc1cc2ccc(C)cc2[nH]c1=O", "hERG current change (%, negative = inhibition) at 10uM": -33.1},
      {"smiles": "COc1ccc(OC)c2[nH]c(C(=O)N3CCC(C(=O)O)CC3)cc12", "hERG current change (%, negative = inhibition) at 10uM": 24.6},
      {"smiles": "CCOc1ccc(-c2nc(S(=O)(=O)c3ccccc3)c(NCc3cccnc3)o2)cc1", "hERG current change (%, negative = inhibition) at 10uM": -2.9},
      {"smiles": "CCN1C(=NCc2cccc(Cl)c2)N[C@@H](c2cccc(F)c2)C(C(=O)OC)=C1C", "hERG current change (%, negative = inhibition) at 10uM": -41.4},
      {"smiles": "COc1ccc2[nH]c(C)c(CCNCc3cccnc3)c2c1.O=C(O)C(=O)O", "hERG current change (%, negative = inhibition) at 10uM": -3.77},
      {"smiles": "CCCc1cc(=O)c2c(O)cccc2o1", "hERG current change (%, negative = inhibition) at 10uM": 5.41},
      {"smiles": "COc1ccc(N/C=C(\\C#N)S(=O)(=O)c2ccc(Cl)cc2)c(OC)c1", "hERG current change (%, negative = inhibition) at 10uM": -8.9},
      {"smiles": "C=CCSc1nnc(Cc2c(C)[nH]c3ccccc23)o1", "hERG current change (%, negative = inhibition) at 10uM": -14.2},
      {"smiles": "Cc1cccc(OCc2nnc(SCC(=O)N3CC(=O)Nc4ccccc43)o2)c1", "hERG current change (%, negative = inhibition) at 10uM": 13.5},
      {"smiles": "O=C(NCC1COc2ccccc2O1)c1ccccc1", "note": "(centres unmarked)", "hERG current change (%, negative = inhibition) at 10uM": -1.83},
      {"smiles": "Cc1ccc(-c2nnc(SCC(=O)N/N=C/c3ccc(C)s3)n2-c2ccc(C)cc2)cc1", "hERG current change (%, negative = inhibition) at 10uM": -17.4},
      {"smiles": "COc1cc(C(=O)NCCCN(C)C)ccc1OCC(=O)Nc1cccc(C(F)(F)F)c1", "hERG current change (%, negative = inhibition) at 10uM": -59.1},
      {"smiles": "Cn1c(CO)c(-c2ccccc2)c2cc([N+](=O)[O-])ccc21", "hERG current change (%, negative = inhibition) at 10uM": 10.2},
      {"smiles": "CC(C(=O)N(C)Cc1ccccc1)N1CCN(C/C=C/c2ccccc2)CC1", "note": "(centres unmarked)", "hERG current change (%, negative = inhibition) at 10uM": -78.9},
      {"smiles": "CC(=O)Nc1ccc(-c2csc(Nc3ccc(Cl)cn3)n2)cc1", "hERG current change (%, negative = inhibition) at 10uM": 20.8},
      {"smiles": "CCc1ccc(/C=C2\\Oc3c(ccc(O)c3CN3CCN(CCO)CC3)C2=O)cc1", "hERG current change (%, negative = inhibition) at 10uM": -2.12},
      {"smiles": "O=C(O)CCCC(=O)N1CCc2cc(S(=O)(=O)N3CCc4ccccc43)ccc21", "hERG current change (%, negative = inhibition) at 10uM": 14.4},
      {"smiles": "Cc1c(NC(=O)Nc2cccc([N+](=O)[O-])c2)c(=O)n(-c2ccccc2)n1C", "hERG current change (%, negative = inhibition) at 10uM": -21.1},
      {"smiles": "Cc1c(Cc2ccc3c(c2)OCO3)sc(NC(=O)c2cccc3ccccc23)c1C(N)=O", "hERG current change (%, negative = inhibition) at 10uM": 17.4},
      {"smiles": "COc1cc(C(=O)Nc2ccc3nc4n(c(=O)c3c2)CCCC4)ccc1Br", "hERG current change (%, negative = inhibition) at 10uM": -25}
    ]}
  ]
}
